Test results from PubChem BioAssay (NCI).
Values joined by “and” are separate entries in the source; they are usually repeats but may differ in a detail not shown here. Identical values can stand only once.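 Briefly, cells in 96-well plates were exposed to five compound concentrations for 48 h, and endpoints were estimated by linear interpolation. The concentration for 50% growth inhibition is given as GI50. TGI: concentration producing complete growth inhibition.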

Test system: NCI-H322M lung
Assay: NCI tumour cell line growth inhibition, 48 h

Structure (SMILES)	TGI	GI50 [µM]
O=C(NCCc1[nH]nc2c1C(=O)C=C(Nc1ccccc1)C2=O)OCc1ccccc1	> 100 µM	
COc1ccc2c(c1)CC[C@@H]1[C@@H]2CC[C@]2(C)C(=O)/C(=C/c3ccc(C#N)cc3)C[C@@H]12	> 100 µM	
N#Cc1c(-c2ccccc2)cc(-c2ccccc2)n(CC(=O)NO)c1=O	90.9 µM	12.4
O=C1/C(=C/c2ccc(Cl)cc2)COc2ccc(O)cc21	25.8 µM	11.8
Cc1ccc(-c2c(C#N)[n+](=O)c3cc(Cl)c(Cl)cc3n2[O-])cc1	33.8 µM	17
C=CCNC(=O)N1CC(C)C(=O)Nc2ccccc21 (stereo unspecified)	> 100 µM	
CC(=O)c1nc2ccccc2n1CCN1CCN(C)CC1	> 100 µM	5.02
Cc1cc(-c2ncc(-c3cccnc3)cc2/C=C/c2ccccc2)cnc1-c1cccnc1	> 100 µM	5.75
COc1ccccc1N1C(=O)/C(=C\c2cc(OC)c(OC)c(OC)c2)SC1c1ccccc1 (stereo unspecified)	> 100 µM	
Cn1c(=O)c2nc(N3CCOCC3)cnc2n(C)c1=O	> 100 µM	
COc1cc(/C=N\O)cc(/C=N/O)c1O	> 100 µM	
Cc1cccc(NC(=O)/C=C/c2ccccc2)c1C	> 100 µM	
Cc1ccccc1-n1c(=O)sc2c(=O)n(-c3ccccc3)c(=S)[nH]c21	> 100 µM	
CCCCNCC(O)c1cc2c(Cl)cc(Cl)cc2c2cc(C(F)(F)F)ccc12 (stereo unspecified)	3.13 µM	1.59
CCOC(=O)CCC(C(=O)OCC)n1nnc2ccc(Nc3c(C)[n+]([O-])c4ccc(Cl)cc4[n+]3[O-])cc21 (stereo unspecified)	> 100 µM	
COc1ccc(C2CC(c3cc(Cl)c(C)cc3O)=NN2c2ccc(S(N)(=O)=O)cc2)cc1OC (stereo unspecified)	39.7 µM	4.45
COc1cc(/C=N/Nc2ncnc3[nH]ncc23)ccc1O	> 25 µM	> 21.1
COc1ccc(Nc2nccc(Nc3ccc4[nH]ncc4c3)n2)cc1	38.2 µM	4.48
O=C(CCl)Nc1ccc2c(c1)C(=O)c1ccccc1C2=O	13.5 µM	5.57
O=C(N/N=C(/COc1ccccc1Cl)N=Cc1cccnc1)c1ccncc1	> 100 µM	
COc1cc(C2=NNC(c3ccc(N(C)C)cc3)C2)cc(OC)c1OC (stereo unspecified)	> 100 µM	12.3
CC(=O)c1sc2c(c1OC(=O)c1ccc(Cl)cc1)c(=O)n(-c1ccccc1)c(=S)n2-c1ccccc1	> 29.7 µM	
O=C1Cc2c([nH]c3ccccc23)C2(CC3CCCCN13)OCCO2 (stereo unspecified)	> 100 µM	
Cc1c(-c2ccccc2)c(C#N)c2nnn(-c3ccc([N+](=O)[O-])cc3)c(=O)n12	89 µM	
COc1cc(Br)cc2cc(C3=CSC4=NCCN34)c(=O)oc12	34.7 µM	
CN(C)c1ccc(/C=C/c2nc3ccccc3s2)cc1	> 100 µM	

Structure (SMILES)	TGI	GI50 [µM]
O=C1c2ccccc2-c2c1c(-c1ccc(O)cc1O)nc1ccc3ccccc3c21	> 100 µM	
O=C1Nc2ccccc2/C1=C/C(=N/c1nnc(-c2ccccc2)s1)c1ccccc1	27 µM	12.7
COC1=CC(c2ccc[nH]2)=N/C1=C\c1[nH]c(C)c(C(=O)CCCCC(=O)NCc2ccccc2)c1C	27.7 µM	13.1
COc1ccc(-c2cc(-c3ccccc3)nc(/N=C\c3ccccc3)n2)c(O)c1	> 100 µM	
CCCCCCCCc1cc[n+](CC(=O)c2ccc(Br)cc2)cc1	8.24 µM	2.62
N#CCCN(CCCN(C(=O)N(c1ccccc1)c1ccccc1)c1ccccc1)C(=O)Nc1ccccc1	> 100 µM	
CN(C)CCn1nc2c3c(c(C(=O)NCCCN(C)CCCNC(=O)c4ccc5c6c(nn5CCN(C)C)-c5ccccc5Nc46)ccc31)Nc1ccccc1-2	0.531 µM	
CC1(C)SC2C(NC(=O)C(C(=O)O)c3ccccc3)C(=O)N2C1C(=O)O (stereo unspecified)	> 100 µM	
O=C(c1c2c(cc3c1CC1(Cc4cc5c(cc4C1)CCCC5)C3)CCCC2)C(Br)Br	> 100 µM	
O=C(O)CC(O)(c1ccccc1C(=O)O)c1cccc2ccccc12 (stereo unspecified)	> 100 µM	
O=c1c2ccccc2nc2n1CCc1c-2[nH]c2ccc(Br)cc12	> 100 µM	
Cc1ccc(C2(c3ccc(C)cc3)SC(=C(C#N)C#N)c3ccccc32)cc1	> 100 µM	
CCCC(c1nnnn1C1CCCCC1)N1CCN(C(=O)c2ccco2)CC1 (stereo unspecified)	> 100 µM	> 100
Cc1[nH]c2nccn2c(=O)c1CCCl	> 100 µM	
N=[N+]=NC1C(O)C(CO)OC1n1cnc2c(N)ncnc21 (stereo unspecified)	> 100 µM	
OCc1nnn2c1CCC2	> 100 µM	
NS(=O)(=O)N(c1cc(C(F)(F)F)cc(C(F)(F)F)c1)C1CCN(Cc2ccc(F)cc2)CC1	23.6 µM	11.5
CCCCc1ccc(-n2c(C)c(COC(=O)NC)c(COC(=O)NC)c2C)cc1	23 µM	
c1ccc(CNCCN2CCNCC2)nc1	> 100 µM	
N=c1oc2c(O)c(O)ccc2cc1C(N)=O	> 100 µM	
O=C(NCCCCNC(=O)OCc1ccc2c(Cl)cc(Cl)c(O)c2n1)OCc1ccc2c(Cl)cc(Cl)c(O)c2n1	> 100 µM	4.69
CS(=O)(=O)Nc1cc(-c2ccc3ncnc(Nc4ccc5c(cnn5Cc5cccc(F)c5)c4)c3c2)cnc1Cl	3.64 µM	0.691
O=C(O/N=C1/CCCC/C1=C\c1ccccc1)c1ccc(Cl)c(Cl)c1	86.8 µM	
CC(C)(/C=N\O)NO	> 10 µM	
CC(C)OC(=O)C1=C2c3ncccc3C(=O)N2[C@@H](Cl)[C@@H](Cl)[C@@H]1Cl	> 100 µM	
O=C1C=CC(=O)c2c(O)c(NCCCN3CCOCC3)c(Cl)c(O)c21	3.3 µM	

Structure (SMILES)	TGI	GI50 [µM]
COc1ccc(C2N(c3ccc(F)c([N+](=O)[O-])c3)C(=O)N3C(c4ccc(OC)cc4)N(c4ccc(F)c([N+](=O)[O-])c4)C(=O)N23)cc1 (stereo unspecified)	> 100 µM	
NN/C(=N\S(=O)(=O)c1cc2ccccc2o1)Nc1ccc(Cl)cc1	> 100 µM	
O=[N+]([O-])c1cccnc1NCC1(CO)CCCC1	71.1 µM	
CC1=CN(c2ccccc2)S2=C1c1sc3c(c1N2c1ccc(Br)cc1)CCCC3 (stereo unspecified)	> 100 µM	
NC(=O)SCC(=O)Nc1ccc2cccc3c2c1CC3	> 100 µM	
COc1ccc2nc3ccccc3c(NCCN(C)CCCl)c2c1	3.4 µM	
c1ccc(-c2cc(-c3cccs3)c(-c3cccs3)s2)cc1	> 100 µM	
Cc1cc(OCC(O)CO)ccc1-c1ccccc1 (stereo unspecified)	> 100 µM	
N#C/C(=N/Nc1nc[nH]c1C(N)=O)C(=O)Nc1ccccc1	> 100 µM	
CCC12CCCN3CCc4c(n(c5ccccc45)C(O)(C(=O)OC)C1)C32 (stereo unspecified)	> 100 µM	
Nc1cc2c([nH]c[n+]2CC#CCCl)c(SCC#CCCl)n1	3.59 µM	1.74
NC1(C(=O)O)CCCC1C(=O)O (stereo unspecified)	> 100 µM	
COc1ccc(CCn2c3c(c4c(O)cccc42)C(=O)c2ccccc2-3)cc1OC	> 100 µM	37.2
CCCCNc1nc2nc[nH]c2c(=O)[nH]1	> 100 µM	
COc1cc(Nc2cnc3cc(N)ccc3n2)cc(OC)c1OC	> 100 µM	
COc1cc2c(c(OC)c1OC)-c1cccc(=O)cc1C(NC(C)=O)CC2 (stereo unspecified)	2.5 µM	
COc1cc2cccc(N=Cc3ccccc3Cl)c2cc1OC	> 100 µM	
Clc1ccc(CCC(Cn2ccnc2)Sc2c(Cl)cccc2Cl)cc1 (stereo unspecified)	22.9 µM	10.6
O=C(CCCn1cnc([N+](=O)[O-])n1)NCCCn1ccnc1[N+](=O)[O-]	> 100 µM	
CCOc1ccccc1NC(=O)CC1Sc2ccccc2NC1=O (stereo unspecified)	> 100 µM	
O=C(c1ccccc1)C(C(=O)c1ccccc1)c1nc2ccccc2sc1=O	> 25 µM	
C[C@@]12C(=O)OC(=O)[C@]1(C)[C@H]1CC[C@@H]2O1	4.33 µM and 5.71 µM	1.67
CCCc1c(Cl)nc(Cl)nc1Cl	19.6 µM	
c1ccc(-c2c(-c3ccccc3)[n+](Cc3ccc4ccccc4c3)c(-c3cccc4ccccc34)n2Cc2ccc3ccccc3c2)cc1	1.3 µM	0.355
CN(C)CC1CCC(=C2CCCC2)C1=O (stereo unspecified)	31.8 µM	
CCOC(=O)/C=C(\C(=O)OCC)n1ccc(=O)n(Cc2cnnn2COCCOC(C)=O)c1=O	> 72.2 µM	

Structure (SMILES)	TGI	GI50 [µM]
Cc1cc2c([nH]1)CSc1cc(S(=O)(=O)c3ccccc3)c(=O)[nH]c1-2	> 100 µM	26.2
C[n+]1c(-c2ccccc2)cc2/c(=C\c3ccccc3)c3ccccc3n21	13.8 µM	
CN(C)Cc1cc(/C(=C(\C#N)c2ccccc2)c2ccc(O)cc2)ccc1O	32.3 µM	
O=C(Oc1cccc2cccnc12)c1cc2cc(CCl)ccc2oc1=O	> 100 µM	
CC(C)CCNc1ncnc2[nH]ncc12	> 100 µM	
CCOC(=O)COc1ccc(OCC(=O)OCC)c2c1C(=O)CCCC2=O	> 100 µM	
CC(=O)OC1COC(N2CCc3ccccc32)C(OC(C)=O)C1OC(C)=O (stereo unspecified)	> 100 µM	
C/C=C/[C@@H]1[C@H]2C(=O)[C@]3(Cl)[C@@H](/C=C/C)[C@@H]3C(=O)[C@@]12Cl	> 100 µM	
CCOC(=O)c1nc2cc(C(F)(F)F)ccc2nc1Nc1cc(OC)c(OC)c(OC)c1	> 100 µM	
Cc1nc2cc([N+](=O)[O-])ccc2c(NCCCN(C)C)c1C	35.7 µM	
COC(=O)c1cc(-c2ccc(OC)c(OC)c2)oc1-c1ccc(OC)c(OC)c1	> 100 µM	
O=S1CCN(Cc2ccc(-c3ccc4ncnc(Nc5ccc(OCc6cccc(F)c6)c(Cl)c5)c4c3)o2)CC1	> 25 µM	0.0622
O=C(/C=C/c1cccc(Br)c1)c1ccc(Cl)cc1	35.6 µM	
COc1ccc(/C=C(\C#N)c2ccc(OC)cc2)cc1	> 100 µM	> 100
CC(C)CC(C(N)=O)C(=O)NC(Cc1ccccc1)NC(=O)CNC(=O)C(C)NC(=O)C(N)Cc1ccc(O)cc1 (stereo unspecified)	> 100 µM	
O=C(CNc1cccc(Cl)c1)Nn1c(-c2ccccc2)nc2ccccc2c1=O	28.8 µM	
CC(=O)c1sc2c(c1OC(=O)c1ccc(Cl)cc1Cl)c(=O)n(-c1ccccc1)c(=S)n2-c1ccccc1	21.1 µM	
CC(=O)CC1(OC(=O)C2C(C=C(C)C)C2(C)C)C(=O)Nc2ccccc21 (stereo unspecified)	> 100 µM	
COC(=O)c1c(OC(C)=O)ccc2c1c1c(OC(C)=O)c3ccccc3c(OC(C)=O)c1n2C	> 100 µM	
N#CCN1c2ccccc2CCC1Cl (stereo unspecified)	> 10 µM	
COc1ccc(NC(=S)N/N=C/c2cccc(C)n2)cc1	> 100 µM	
NC(N)=NS(=O)(=O)c1ccc(Nc2c3ccccc3nc3c(C(=O)NNCCO)cccc23)cc1	> 1 µM	
Cc1cc(C)c(-c2cc(O)c(-c3c(C)cc(C)cc3C)cc2O)c(C)c1	> 100 µM	7.48
Cc1nnc(N)nc1C/C=C/C(Sc1ccc(Cl)cc1)c1ccccc1 (stereo unspecified)	23.4 µM	
COC1CC2C3/C(=N/Nc4ccc([N+](=O)[O-])cc4[N+](=O)[O-])CCC2(C)C3C1 (stereo unspecified)	> 100 µM	
O=C(O)C1(c2ccccc2)CCCNCC1 (stereo unspecified)	> 100 µM	
